The other results are listed elsewhere or left out. At the low end of the ranking, values are background and their order means little.
What follows are sequences tested against GST-SBP-SLBP (stem-loop binding protein) (UniProt Q14493) (assay: targeted RNA Bind-n-Seq). Conditions: RBNS binding buffer: 25 mM Tris pH 7.5, 150 mM KCl, 3 mM MgCl2, 0.1% Tween, 0.5 mg/mL BSA, 1 mM DTT; 27 nM protein, 750 pM RNA pool; temperature not stated; high values mean tight binding.
“GGUCACGUCUCAAUCAACUCUUUUCCCAGGGAAACCCCUGGCUUACUCAACAGCUCGCAGUCAAG” showed a binding signal (log2 fold change) of -0.108. “GGUCACGUCUCAAUCAACUCUAUAGAGGGGGGGAAAACCCCUUUACCCUCAUCCUCAACAGCUCGCAGUCAAG” gave a binding signal (log2 fold change) of -0.359. In the case of “GGUCACGUCUCAAUCAACUCUUCUCCCAGGGAAAUCCCUGGUUAAUUCAACAGCUCGCAGUCAAG”, the binding signal (log2 fold change) is reported as -0.37. Work on “GGUCACGUCUCAAUCAACUCAUUCUCAGGAGUUUUCUCCUGUUAUCUCAACAGCUCGCAGUCAAG” yielded a binding signal (log2 fold change) of -0.0878. “GGUCACGUCUCAAUCAACUCAAUUCCCAGGGAAAACCCUGGCUUACUCAACAGCUCGCAGUCAAG” was tested, and the binding signal (log2 fold change) was -0.245. “GGUCACGUCUCAAUCAACUCAUCCUCCAGGGAAAGCCCUGGCAAAUUCAACAGCUCGCAGUCAAG” gave a binding signal (log2 fold change) of -0.25. For “GGUCACGUCUCAAUCAACUCCAUAGAGGGGGGGAAAACCCCUUUGCCCUCGUAAUCAACAGCUCGCAGUCAAG”, the binding signal (log2 fold change) was -0.407. “GGUCACGUCUCAAUCAACUCAACUUCAGGAGUUUCCUCCUGUUAUCUCAACAGCUCGCAGUCAAG” was tested, and the binding signal (log2 fold change) was 0.0369. “GGUCACGUCUCAAUCAACUCAUCCCCCAGGGAAACCCCUGGCAUUUUCAACAGCUCGCAGUCAAG” showed a binding signal (log2 fold change) of -0.0369. For “GGUCACGUCUCAAUCAACUCAUCUCCAGGAGUUUGCUCCUGCAUUCUCAACAGCUCGCAGUCAAG”, the binding signal (log2 fold change) was 0.188. Work on “GGUCACGUCUCAAUCAACUCCUCAGAGGGGGGGAAAACCCCUUUACCCUCACUCUCAACAGCUCGCAGUCAAG” yielded a binding signal (log2 fold change) of -0.0768. “GGUCACGUCUCAAUCAACUCAUCCCCAGGAGUUUUCUCCUGCAUACUCAACAGCUCGCAGUCAAG” showed a binding signal (log2 fold change) of 0.212. With “GGUCACGUCUCAAUCAACUCUUCCCCAGGAGUUUUCUCCUGCUAACUCAACAGCUCGCAGUCAAG” the binding signal (log2 fold change) was -0.00891. In the case of “GGUCACGUCUCAAUCAACUCAAUCUCAGGAGUUUCCUCCUGCAAUUUCAACAGCUCGCAGUCAAG”, the binding signal (log2 fold change) is reported as 0.0636. Sequence “GGUCACGUCUCAAUCAACUCUUCGUCAGGAGUUUCCUCCUGUUUUUUCAACAGCUCGCAGUCAAG” has a binding signal (log2 fold change) of 0.137. For “GGUCACGUCUCAAUCAACUCAUAAGAGGGGGGGAAAACCCCUUUACCCUCCGAAUCAACAGCUCGCAGUCAAG”, the binding signal (log2 fold change) was 0.123. “GGUCACGUCUCAAUCAACUCAUCCUCAGGAGUUUUCUCCUGUUAUUUCAACAGCUCGCAGUCAAG” was tested, and the binding signal (log2 fold change) was -0.129. “GGUCACGUCUCAAUCAACUCAUUCUCAGGAGUUUCCUCCUGCAAAGUCAACAGCUCGCAGUCAAG” showed a binding signal (log2 fold change) of 0.0992. Work on “GGUCACGUCUCAAUCAACUCCGCAGAGGGGGGGAAAACCCCUUUACCCUCACAUUCAACAGCUCGCAGUCAAG” yielded a binding signal (log2 fold change) of -0.026. For “GGUCACGUCUCAAUCAACUCUUUUUCCAGGGAAAUCCCUGGUAUGUUCAACAGCUCGCAGUCAAG”, the binding signal (log2 fold change) was 0.0406. With “GGUCACGUCUCAAUCAACUCAUCUUCAGGAGUUUCCUCCUGCUAUGUCAACAGCUCGCAGUCAAG” the binding signal (log2 fold change) was 0.188. Work on “GGUCACGUCUCAAUCAACUCAUCUUCAGGAGUUUACUCCUGUAAUUUCAACAGCUCGCAGUCAAG” yielded a binding signal (log2 fold change) of -0.0624. Sequence “GGUCACGUCUCAAUCAACUCACACGAGGGGGGGAAAACCCCUUUACCCUCACUAUCAACAGCUCGCAGUCAAG” has a binding signal (log2 fold change) of -0.338. With “GGUCACGUCUCAAUCAACUCUAAAGAGGGGGGGAAAACCCCUUUACCCUCCACUUCAACAGCUCGCAGUCAAG” the binding signal (log2 fold change) was 0.118. With “GGUCACGUCUCAAUCAACUCUUCUCCAGGAGUUUACUCCUGCUUUUUCAACAGCUCGCAGUCAAG” the binding signal (log2 fold change) was 0.0701. For “GGUCACGUCUCAAUCAACUCUAUCUCAGGAGUUUUCUCCUGUUUACUCAACAGCUCGCAGUCAAG”, the binding signal (log2 fold change) was 0.08. With “GGUCACGUCUCAAUCAACUCUCUAGAGGGGGGGAAAACCCCUUUUCCCUCAAUAUCAACAGCUCGCAGUCAAG” the binding signal (log2 fold change) was -0.369. “GGUCACGUCUCAAUCAACUCUUUCCCCAGGGAAAACCCUGGUUAACUCAACAGCUCGCAGUCAAG” gave a binding signal (log2 fold change) of 0.163. With “GGUCACGUCUCAAUCAACUCAGUUUCCAGGGAAACCCCUGGCAUUUUCAACAGCUCGCAGUCAAG” the binding signal (log2 fold change) was -0.225. Sequence “GGUCACGUCUCAAUCAACUCAACUCCCAGGGAAAACCCUGGUAUAUUCAACAGCUCGCAGUCAAG” has a binding signal (log2 fold change) of 0.0586. In the case of “GGUCACGUCUCAAUCAACUCUACUUCAGGAGUUUACUCCUGCAUUCUCAACAGCUCGCAGUCAAG”, the binding signal (log2 fold change) is reported as -0.0785. “GGUCACGUCUCAAUCAACUCAUUUCCAGGAGUUUCCUCCUGCAAUUUCAACAGCUCGCAGUCAAG” was tested, and the binding signal (log2 fold change) was -0.0116. Work on “GGUCACGUCUCAAUCAACUCUAUCUCCAGGGAAACCCCUGGUAUUCUCAACAGCUCGCAGUCAAG” yielded a binding signal (log2 fold change) of 0.144. Work on “GGUCACGUCUCAAUCAACUCAUGUCCCAGGGAAAACCCUGGUUUUUUCAACAGCUCGCAGUCAAG” yielded a binding signal (log2 fold change) of -0.204. “GGUCACGUCUCAAUCAACUCUUUUUCCAGGGAAACCCCUGGCAUACUCAACAGCUCGCAGUCAAG” showed a binding signal (log2 fold change) of 0.44. Sequence “GGUCACGUCUCAAUCAACUCAUUCUCAGGAGUUUCCUCCUGUAUAUUCAACAGCUCGCAGUCAAG” has a binding signal (log2 fold change) of -0.16. Work on “GGUCACGUCUCAAUCAACUCAUCCUCCAGGGAAAGCCCUGGUAAUUUCAACAGCUCGCAGUCAAG” yielded a binding signal (log2 fold change) of -0.135. In the case of “GGUCACGUCUCAAUCAACUCUUUCUCCAGGGAAAACCCUGGUAUUCUCAACAGCUCGCAGUCAAG”, the binding signal (log2 fold change) is reported as 0.00444. “GGUCACGUCUCAAUCAACUCCUAAGAGGGGGGGAAAACCCCUUUGCCCUCAUUCUCAACAGCUCGCAGUCAAG” gave a binding signal (log2 fold change) of 0.335. With “GGUCACGUCUCAAUCAACUCACAAGAGGGGGGGAAAACCCCUUUACCCUCAAACUCAACAGCUCGCAGUCAAG” the binding signal (log2 fold change) was -0.666. “GGUCACGUCUCAAUCAACUCUAGUCCCAGGGAAAGCCCUGGUUAAUUCAACAGCUCGCAGUCAAG” was tested, and the binding signal (log2 fold change) was -0.299. “GGUCACGUCUCAAUCAACUCAAUUCCAGGAGUUUCCUCCUGUUAACUCAACAGCUCGCAGUCAAG” was tested, and the binding signal (log2 fold change) was -0.0629. Work on “GGUCACGUCUCAAUCAACUCAAUUUCCAGGGAAACCCCUGGUUUACUCAACAGCUCGCAGUCAAG” yielded a binding signal (log2 fold change) of 0.23. Work on “GGUCACGUCUCAAUCAACUCUUUCUCAGGAGUUUUCUCCUGCUAACUCAACAGCUCGCAGUCAAG” yielded a binding signal (log2 fold change) of -0.0981. For “GGUCACGUCUCAAUCAACUCAAUCCCAGGAGUUUUCUCCUGCUAACUCAACAGCUCGCAGUCAAG”, the binding signal (log2 fold change) was -0.0624. Sequence “GGUCACGUCUCAAUCAACUCUACUUCCAGGGAAAACCCUGGCAAACUCAACAGCUCGCAGUCAAG” has a binding signal (log2 fold change) of 0.31. For “GGUCACGUCUCAAUCAACUCUUUAGAGGGGGGGAAAACCCCUUUGCCCUCCAAAUCAACAGCUCGCAGUCAAG”, the binding signal (log2 fold change) was -0.015. “GGUCACGUCUCAAUCAACUCCUAGGAGGGGGGGAAAACCCCUUUACCCUCACCAUCAACAGCUCGCAGUCAAG” was tested, and the binding signal (log2 fold change) was -0.308. Work on “GGUCACGUCUCAAUCAACUCAUCUUCAGGAGUUUACUCCUGCAAACUCAACAGCUCGCAGUCAAG” yielded a binding signal (log2 fold change) of 0.0764. With “GGUCACGUCUCAAUCAACUCUUAAGAGGGGGGGAAAACCCCUUUGCCCUCAUAUUCAACAGCUCGCAGUCAAG” the binding signal (log2 fold change) was -0.131. With “GGUCACGUCUCAAUCAACUCUUCGUCCAGGGAAAGCCCUGGUAAUCUCAACAGCUCGCAGUCAAG” the binding signal (log2 fold change) was 0.186. For “GGUCACGUCUCAAUCAACUCAAUAGAGGGGGGGAAAACCCCUUUGCCCUCAACUUCAACAGCUCGCAGUCAAG”, the binding signal (log2 fold change) was -0.0539. “GGUCACGUCUCAAUCAACUCAUUUCCAGGAGUUUACUCCUGUAGUCUCAACAGCUCGCAGUCAAG” was tested, and the binding signal (log2 fold change) was 0.104. With “GGUCACGUCUCAAUCAACUCAUCGUCCAGGGAAAGCCCUGGUAAUCUCAACAGCUCGCAGUCAAG” the binding signal (log2 fold change) was -0.108. “GGUCACGUCUCAAUCAACUCUAGUCCCAGGGAAACCCCUGGUUAUUUCAACAGCUCGCAGUCAAG” showed a binding signal (log2 fold change) of 0.123. “GGUCACGUCUCAAUCAACUCUAUUCCAGGAGUUUCCUCCUGUUUAUUCAACAGCUCGCAGUCAAG” was tested, and the binding signal (log2 fold change) was -0.206. Sequence “GGUCACGUCUCAAUCAACUCAUCCGAGGGGGGGAAAACCCCUUUACCCUCUUUUUCAACAGCUCGCAGUCAAG” has a binding signal (log2 fold change) of -0.0414. “GGUCACGUCUCAAUCAACUCAUUAGAGGGGGGGAAAACCCCUUUACCCUCCGUUUCAACAGCUCGCAGUCAAG” gave a binding signal (log2 fold change) of 0.204. “GGUCACGUCUCAAUCAACUCUUCCUCCAGGGAAAUCCCUGGCAAACUCAACAGCUCGCAGUCAAG” gave a binding signal (log2 fold change) of -0.247. Sequence “GGUCACGUCUCAAUCAACUCAUCGUCCAGGGAAACCCCUGGUAAUCUCAACAGCUCGCAGUCAAG” has a binding signal (log2 fold change) of -0.0806. “GGUCACGUCUCAAUCAACUCAACUUCCAGGGAAAUCCCUGGCUUAUUCAACAGCUCGCAGUCAAG” was tested, and the binding signal (log2 fold change) was -0.0874. “GGUCACGUCUCAAUCAACUCUUUUCCAGGAGUUUACUCCUGCAUUUUCAACAGCUCGCAGUCAAG” showed a binding signal (log2 fold change) of 0.228. Work on “GGUCACGUCUCAAUCAACUCAUUUCCCAGGGAAAUCCCUGGCAUAUUCAACAGCUCGCAGUCAAG” yielded a binding signal (log2 fold change) of -0.0728. In the case of “GGUCACGUCUCAAUCAACUCAUUCUCCAGGGAAAACCCUGGCAUAUUCAACAGCUCGCAGUCAAG”, the binding signal (log2 fold change) is reported as 0.114. Work on “GGUCACGUCUCAAUCAACUCUACGGAGGGGGGGAAAACCCCUUUACCCUCAUUAUCAACAGCUCGCAGUCAAG” yielded a binding signal (log2 fold change) of -0.364. With “GGUCACGUCUCAAUCAACUCCAAAGAGGGGGGGAAAACCCCUUUACCCUCCUUAUCAACAGCUCGCAGUCAAG” the binding signal (log2 fold change) was 0.238. With “GGUCACGUCUCAAUCAACUCAACUUCCAGGGAAAACCCUGGUUUUUUCAACAGCUCGCAGUCAAG” the binding signal (log2 fold change) was -0.393. “GGUCACGUCUCAAUCAACUCACUAGAGGGGGGGAAAACCCCUUUACCCUCAUUCUCAACAGCUCGCAGUCAAG” was tested, and the binding signal (log2 fold change) was 0.0874. “GGUCACGUCUCAAUCAACUCUCAAGAGGGGGGGAAAACCCCUUUACCCUCAUCAUCAACAGCUCGCAGUCAAG” gave a binding signal (log2 fold change) of -0.573. Work on “GGUCACGUCUCAAUCAACUCUUUCCCAGGAGUUUUCUCCUGUUAACUCAACAGCUCGCAGUCAAG” yielded a binding signal (log2 fold change) of 0.111. With “GGUCACGUCUCAAUCAACUCUUUUCCAGGAGUUUCCUCCUGCAAUUUCAACAGCUCGCAGUCAAG” the binding signal (log2 fold change) was 0.0922. In the case of “GGUCACGUCUCAAUCAACUCAUCGGCAGGAGUUUUCUCCUGGAAUCUCAACAGCUCGCAGUCAAG”, the binding signal (log2 fold change) is reported as 0.078. With “GGUCACGUCUCAAUCAACUCUCAAGAGGGGGGGAAAACCCCUUUACCCUCGUAAUCAACAGCUCGCAGUCAAG” the binding signal (log2 fold change) was 0.147. For “GGUCACGUCUCAAUCAACUCAUCUCCCAGGGAAAUCCCUGGCUAACUCAACAGCUCGCAGUCAAG”, the binding signal (log2 fold change) was -0.0124.

Reference: PMC5892938
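Note: DESeq read counts versus GST-SBP nonspecific binding control pulldown.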
